# Data published in the supplement of paper PMC12217912.
# Some of the results follow. Sequences were assembled here from the parent chain. Values near 0.05 are background.
# B1: TEV protease; numbered along this chain (parent)
# chain: MGESLFKGPRDYNPISSSICHLTNESDGHTTSLYGIGFGPFIITNKHLFRRNNGTLVVQSLHGVFKVKDTTTLQQHLVDGRDMIIIRMPKDFPPFPQKLKFREPQREERICLVTTNFQTKSMSSMVSDTSCTFPSGDGIFWKHWIQTKDGQCGSPLVSTRDGFIVGIHSASNFTNTNNYFTSVPKNFMELLTNQEAQQWVSGWRLNADSVLWGGHKVFMVKPEEPFQPVKEATQL
# Variants of: B1
# Experiment: raw area under fraction-flipped curve 0-4 h after induction (AUC4h, not background-subtracted), DNA-recorder readout of cleavage of the substrate (dimensionless); higher = more cleavage of the substrate by the protease variant
# Details: temperature: 34 °C; time window: 0-4 h after rhamnose induction
# Description: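 In vivo DNA recorder in E. coli TOP10(DE3) ΔrhaA at 34 °C. Each TEVp single-site mutant (parent TEVp 0) is paired with a single-site variant of the 7-mer TEVs (canonical ENLYFQ|S). The substrate sits between flexible linkers in a Bxb1-sfGFP-TEVs-SsrA fusion, so cleavage stabilises Bxb1 and speeds flipping of a recombination array, read by NGS. The value is the raw area under the fraction-flipped curve over 0-4 h after rhamnose induction (AUC4h), with ≥20 reads per time point. It is not background-subtracted; inactive controls average about 0.047.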
# 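Note: Bxb1 expression induced with 0.2% (w/v) L-rhamnose at OD600 near 0.5, cultures sampled hourly, flipped fraction per protease–substrate barcode pair counted by paired-end Illumina sequencing.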
Variant,area with substrate ANLYFQS,area with substrate FNLYFQS,area with substrate SNLYFQS,area with substrate GNLYFQS,area with substrate HNLYFQS,area with substrate KNLYFQS,area with substrate LNLYFQS,area with substrate YNLYFQS,area with substrate NNLYFQS,area with substrate PNLYFQS
G35R,0.0376,0.0114,0.0543,–,–,–,–,–,–,–
L22G,0.0609,–,0.0362,0.0488,0.0522,0.228,0.0464,0.062,–,–
M219A,0.0599,–,–,0.0605,0.0503,–,–,0.0621,0.0527,0.0792
I110E,0.0509,–,–,0.0506,–,–,–,0.0507,0.0536,–
E108Q,0.0384,0.169,0.0393,–,0.0593,0.0537,0.0489,0.0539,0.0541,0.0566
F226D,0.069,–,0.0811,0.0678,0.0624,–,–,–,0.0683,–
A207I,0.0616,–,0.0652,–,0.0584,–,–,0.067,–,0.0704
E189K,0.0668,0.0673,–,0.0728,0.0588,–,–,0.0637,–,–
G138H,0.051,0.0594,–,–,–,0.0704,–,–,–,–
V183K,0.0533,–,0.0564,0.0533,0.062,–,–,0.0438,0.071,0.0619
E195Y,0.0596,–,0.0709,0.0686,–,–,–,0.0561,–,–
V165N,0.0491,0.0424,–,–,0.0538,–,–,0.0143,0.0296,0.0482
G153R,0.0273,–,–,–,–,–,–,–,–,–
N45L,0.0551,0.0604,0.0642,–,0.0557,0.052,0.0589,0.0586,–,0.0542
T119M,0.0605,–,–,0.0086,–,0.0665,–,–,–,–
I145E,0.0608,–,0.0548,–,0.0658,–,–,–,–,0.0632
N172C,0.0704,–,0.0613,–,0.0532,–,0.0771,–,–,0.0517
G35E,0.0432,–,–,–,0.0656,–,0.0362,–,–,0.0452
P228F,0.0533,–,–,–,–,–,–,0.0642,0.0661,–
W141H,0.0591,0.0537,–,0.0658,0.0315,0.0683,0.0649,–,–,0.0611

Variant,area with substrate ANLYFQS,area with substrate FNLYFQS,area with substrate SNLYFQS,area with substrate GNLYFQS,area with substrate HNLYFQS,area with substrate KNLYFQS,area with substrate LNLYFQS,area with substrate YNLYFQS,area with substrate NNLYFQS,area with substrate PNLYFQS
F133G,0.0427,0.0636,0.0838,0.0735,0.0673,–,0.0734,0.0424,–,0.0699
M219F,0.0905,–,0.0583,0.0623,0.0793,0.0741,–,0.0744,–,0.0638
G153V,0.0461,–,0.0437,0.0744,0.0572,0.051,–,0.0444,0.0559,0.0501
D149R,0.0742,–,–,–,0.0835,–,–,–,–,–
E223Q,0.0694,0.0349,–,–,–,–,–,0.0896,0.0755,–
V57R,0.0621,–,0.0631,–,0.0717,0.0596,0.0771,0.0698,–,0.086
S130R,0.0402,0.0596,0.0534,0.0515,–,–,0.075,0.0735,–,0.0596
V126T,0.0669,–,–,–,0.0432,–,0.0716,0.0638,–,0.0783
D161Q,0.0661,–,0.0561,–,0.0503,0.0574,0.0568,0.0534,–,–
S18M,0.0816,–,0.0545,–,–,0.0643,–,0.0644,–,0.0575
Q234G,0.0519,–,0.0766,0.0706,0.072,–,–,–,0.0909,–
T114H,0.0552,0.0559,–,–,–,–,0.0276,0.0591,–,0.0727
R106G,0.0677,0.0701,–,0.0652,0.0604,0.0618,0.0718,–,–,–
L77K,0.0479,0.0569,–,–,0.0528,0.0591,0.053,–,0.0535,–
I85L,0.0751,–,–,–,0.0634,0.0743,–,–,–,0.0812
E3N,0.0636,–,–,–,–,0.0906,–,–,0.072,–
T174L,0.0388,–,–,–,–,–,–,–,0.0573,0.0586
T115M,0.0399,0.0547,–,0.0764,0.0605,0.075,0.0715,0.0535,0.0644,0.0484
L205V,0.0269,–,–,–,0.0502,–,0.0655,–,–,–
H215V,0.0631,–,0.0598,–,–,0.0613,0.0444,–,–,–

# Same assay, conditions: temperature: 34 °C; time window: 0-4 h after rhamnose induction
Variant,area with substrate QNLYFQS,area with substrate TNLYFQS,area with substrate VNLYFQS,area with substrate RNLYFQS,area with substrate WNLYFQS,area with substrate MNLYFQS,area with substrate DNLYFQS,area with substrate INLYFQS
M219A,0.0513,0.0561,0.0558,–,–,–,–,–
I110E,–,–,–,0.0561,0.0505,–,–,–
E108Q,0.0679,0.0607,0.0688,–,0.0585,0.0658,–,–
F226D,–,0.0992,0.0683,–,0.0791,0.0745,–,–
A207I,–,0.08,–,–,0.0587,–,0.0643,–
E189K,0.0693,–,–,–,0.0678,0.0659,–,–
G138H,0.0531,–,0.0363,–,–,–,–,0.0682
V183K,–,0.0517,–,–,0.0506,–,–,0.0512
E195Y,–,0.0703,–,–,0.0527,–,–,–
V165N,–,0.031,–,–,0.0264,0.028,–,0.0488
N45L,–,0.0615,0.0512,0.0477,0.0568,0.0546,–,–
T119M,0.0482,–,–,–,0.0694,–,–,0.0648
I145E,–,–,0.0534,–,0.0459,–,–,–
N172C,–,–,–,–,0.0528,–,0.062,–
P228F,0.0683,0.0665,0.0758,–,0.0572,–,–,–
W141H,0.066,–,0.0556,–,0.0607,0.0513,–,0.0913
F133G,–,0.101,0.101,–,0.0534,–,–,–
M219F,–,0.0647,–,–,–,0.103,–,0.0934

Variant,area with substrate QNLYFQS,area with substrate TNLYFQS,area with substrate VNLYFQS,area with substrate RNLYFQS,area with substrate WNLYFQS,area with substrate MNLYFQS,area with substrate DNLYFQS,area with substrate INLYFQS
G153V,–,0.0589,0.0535,–,–,–,–,–
D149R,–,0.0584,0.0603,–,0.0537,–,–,0.0407
E223Q,–,–,–,–,0.063,0.0826,–,0.0605
V57R,–,0.0445,0.0732,–,–,–,–,–
S130R,0.0666,0.0541,–,–,0.0518,–,0.0478,0.049
V126T,–,0.0665,–,–,–,–,–,0.0596
D161Q,–,0.0609,0.0365,0.055,0.0523,0.0499,0.071,–
S18M,–,0.0629,0.0675,–,–,0.0701,–,0.071
Q234G,–,–,–,–,0.0577,0.0507,–,0.0072
T114H,–,0.0587,0.0382,–,–,–,–,–
R106G,–,0.0558,–,–,0.055,0.0628,–,0.0669
L77K,–,0.0484,0.0554,0.0426,0.0565,0.0563,–,–
I85L,–,0.0715,0.078,0.0615,0.057,0.0673,0.107,0.0696
E3N,–,0.0704,–,–,0.04,–,–,0.135
T174L,–,–,–,–,–,–,–,0.051
T115M,–,0.0838,0.074,0.0248,0.0505,0.0567,–,0.0452
L205V,–,0.073,–,–,0.0527,0.0718,0.0617,–
H215V,–,0.0657,0.0614,0.0584,–,–,0.0528,0.0586
